# Test results as given in PubChem BioAssay AID504332 (National Center for Advancing Translational Sciences (NCATS), 2011).
# In all, about 350,000 compounds went through this assay and about 31,000 (8.9%) were called active. Inconclusive results, whose numbers are uncertain, are shown with a selection of clear calls. Calls come from the whole dose curve; as a rule, active = well fitted inhibition curve with a large enough effect; inconclusive = small, poorly fitted or top-dose-only effect; inactive = no such curve, though single readings can be large or run the other way. Potencies beside an inconclusive call are fits to weak or partial responses and may not hold up.
# Biological target: Histone-lysine N-methyltransferase EHMT2 (Homo sapiens) (UniProt Q96KQ7)
# Test: qHTS Assay for Inhibitors of Histone Lysine Methyltransferase G9a; note: nearly all actives have a fitted effect of over 75% in size
# Conditions: G9a H3K9 monomethylation, AlphaScreen, 2 h; activity, negative = inhibition: at 59 µM (top of the series) unless noted
# Outline: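 Enzyme 20 nM + cpd, 15 min RT; add b-H3K9 pep 500 nM / SAM 20 uM; 2 h RT; anti-H3K9me1 Ab 0.5 ug/mL + SA donor / anti-rabbit acceptor beads 20 ug/mL each, 10 min; AlphaScreen read.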
# % is set by controls: 0 for no effect and ±100 for the full control effect; potency is the fitted concentration of half-maximal effect; tags give direction and shape of the fitted curve.
# Chain of UniProt Q96KQ7 (Q96KQ7 whole entry, looked up): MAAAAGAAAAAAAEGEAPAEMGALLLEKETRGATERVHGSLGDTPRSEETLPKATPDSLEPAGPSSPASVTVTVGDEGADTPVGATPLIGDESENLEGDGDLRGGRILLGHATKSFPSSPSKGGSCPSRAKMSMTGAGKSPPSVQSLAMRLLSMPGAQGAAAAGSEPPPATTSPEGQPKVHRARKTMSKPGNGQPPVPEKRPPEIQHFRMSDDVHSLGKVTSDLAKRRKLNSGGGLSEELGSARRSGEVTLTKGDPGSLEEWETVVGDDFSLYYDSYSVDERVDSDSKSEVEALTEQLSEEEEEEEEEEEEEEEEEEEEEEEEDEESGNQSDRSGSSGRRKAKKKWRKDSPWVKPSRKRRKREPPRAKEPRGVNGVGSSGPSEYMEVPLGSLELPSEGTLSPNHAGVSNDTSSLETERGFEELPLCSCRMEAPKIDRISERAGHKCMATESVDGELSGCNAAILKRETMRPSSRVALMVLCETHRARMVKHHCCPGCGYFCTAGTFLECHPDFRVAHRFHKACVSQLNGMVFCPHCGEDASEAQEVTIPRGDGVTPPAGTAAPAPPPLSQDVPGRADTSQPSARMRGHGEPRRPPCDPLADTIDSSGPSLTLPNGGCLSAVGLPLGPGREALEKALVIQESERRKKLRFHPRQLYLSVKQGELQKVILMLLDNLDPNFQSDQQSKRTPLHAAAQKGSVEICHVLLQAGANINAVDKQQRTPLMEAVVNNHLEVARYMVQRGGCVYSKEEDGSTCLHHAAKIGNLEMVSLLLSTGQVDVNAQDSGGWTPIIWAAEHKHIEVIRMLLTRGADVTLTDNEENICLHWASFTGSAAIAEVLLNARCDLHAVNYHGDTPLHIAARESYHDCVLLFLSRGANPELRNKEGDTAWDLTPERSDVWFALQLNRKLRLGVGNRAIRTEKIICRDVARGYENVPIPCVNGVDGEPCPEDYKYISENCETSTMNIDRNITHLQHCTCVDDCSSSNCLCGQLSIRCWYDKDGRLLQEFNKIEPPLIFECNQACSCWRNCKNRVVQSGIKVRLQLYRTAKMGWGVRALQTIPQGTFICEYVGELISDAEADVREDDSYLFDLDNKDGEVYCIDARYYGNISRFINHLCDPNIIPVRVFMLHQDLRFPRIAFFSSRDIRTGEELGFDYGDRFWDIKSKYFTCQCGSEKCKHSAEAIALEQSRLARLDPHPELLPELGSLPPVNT
SMILES,Potency,"activity, negative = inhibition"
N#Cc1cc(Sc2ccccn2)c(Sc2ccccn2)cc1C#N,active: 31.6 µM,–
CC(Sc1nnc(-c2ccccc2F)n1C1CC1)C(=O)NCc1ccco1 (stereo unspecified),inactive,–
O=[N+]([O-])c1ccc(Cl)c(S(=O)(=O)Nc2cccc(-c3ccc(N4CCOCC4)nn3)c2)c1,active: 50.1 µM,–
CC(C)c1ccc(NC(=O)C2CCN(c3ncnc4c3nc3n4CCCCC3)CC2)cc1,inactive,–
O=C(O)c1cc(-c2ccc(Cl)cc2)n(-c2ccc(F)cc2)n1,"inconclusive: 89.1 µM [inhibitor, single point]",–
COc1ccc(C)cc1NC(=O)c1ccc2c(c1)N(Cc1cccc(Cl)c1)C(=O)c1ccccc1S2=O (stereo unspecified),inactive,–
O=C1/C(=C/c2ccccn2)SC(=S)N1c1ccc(O)cc1,"inconclusive: 12.6 µM [inhibitor, partial curve]",–
Nc1nnc(SCC(=O)Nc2ccc(S(=O)(=O)N3CCOCC3)cc2)s1,"inconclusive: 3.16 µM [inhibitor, partial curve, poor fit]",–
O=C(CSc1ccc2c(c1)OCCO2)Nc1ccc(N2CCOCC2)cc1,"inconclusive: 35.5 µM [inhibitor, partial curve]",–
C=C1C(=CC=C2CCC[C@@]3(C)[C@@H]2CC[C@H]3[C@H](C)CCCC(C)C)C[C@@H](O)C[C@@H]1O,"inconclusive: 10 µM [inhibitor, partial curve, poor fit]",–
CCOC(=O)c1noc2ncn(CC(=O)Nc3ccc(OC)c(Cl)c3)c(=O)c12,inactive,–
Cc1ccc(S(=O)(=O)c2nc(-c3cccs3)oc2SC(C)c2ccccc2)cc1 (stereo unspecified),"inconclusive: 14.1 µM [inhibitor, partial curve]",–
COCCNC(=O)C1CCC(CNS(=O)(=O)c2ccccc2)CC1 (stereo unspecified),"inconclusive: 3.55 µM [inhibitor, partial curve, poor fit]",–
Cc1nn(CC(=O)Nc2ccccn2)c(C)c1[N+](=O)[O-],"inconclusive: 28.2 µM [inhibitor, partial curve, poor fit]",–
CC1=NCCN1S(=O)(=O)c1ccccc1[N+](=O)[O-],"inconclusive: 89.1 µM [inhibitor, partial curve, poor fit]",–
CNCCCc1[nH]nc(N)c1C#N,"inconclusive: 31.6 µM [inhibitor, single point]",–
Cc1ccc(NC(=O)Cn2c(=O)n(Cc3ccc4c(c3)OCO4)c(=O)c3ccc(C(=O)NC4CCCCC4)cc32)cc1,inactive,–
CCOC(=O)c1ccc(NC(=O)Cc2coc3cc(C)cc(C)c23)cc1,inactive,–
O=[N+]([O-])c1ccc(NC(=S)N2CCN(c3ccc(F)cc3)CC2)cc1,–,inactive: 13% [at 0.501 µM]
COC(=O)c1ccccc1NC(=O)/C=C/C(=O)O,"inconclusive: 39.8 µM [inhibitor, single point]",–
Cc1ccnc(NS(=O)(=O)c2ccc(NC(=O)c3oc4ccccc4c3C)cc2)n1,active: 25.1 µM,–
O=[N+]([O-])c1ccccc1/C=N\Nc1nccs1,inactive,–
Cc1nnc(C)c2c(C)n(C(c3ccccc3)c3ccccc3)c(C)c12,–,inconclusive: -86.3% [inhibitor]
CCOc1ccc2c(c1)C(C)=CC(C)(C)N2C(=O)Nc1ccccc1F,"inconclusive: 20 µM [inhibitor, single point]",–

SMILES,Potency,"activity, negative = inhibition"
C=CCNCC#CCOc1ccc(OC)cc1,active: 10 µM,–
Cn1ccsc1=NC(=O)c1ccc(Cl)c([N+](=O)[O-])c1,–,inactive: -9.1% [at 2.33 µM]
COC(=O)c1sc(-c2ccc(Cl)cc2)cc1NC(=O)CSCC(=O)O,inactive,–
COc1ccc(CNC(=O)c2cnc(N3CCCC3)nc2C)cc1,inactive,–
Cc1cc(-c2nc3ccccc3c(=O)o2)ccc1[N+](=O)[O-],inactive,–
COc1ccc(NC(=O)CSc2ccccc2)cn1,"inconclusive: 35.5 µM [inhibitor, full curve]",–
COc1cnn(-c2ccc(F)cc2)c(=O)c1Br,inactive,–
CS(=O)(=O)c1nc(S(=O)(=O)c2ccc(Cl)cc2)c(N2CCC3(CC2)OCCO3)s1,"inconclusive: 89.1 µM [inhibitor, single point]",–
CCN(CC(=O)Nc1ccc(Cl)c(S(=O)(=O)N(C)C)c1)Cc1nc2ccccc2c(=O)[nH]1,active: 39.8 µM,–
C=CCOc1cccc(C2/C(=C(\O)c3ccc(F)cc3)C(=O)C(=O)N2CCN(C)C)c1 (stereo unspecified),–,inconclusive: -52.1% [inhibitor]
Cc1ccc(O)c(Sc2cc(C)ccc2O)c1,"inconclusive: 25.1 µM [inhibitor, partial curve, poor fit]",–
NS(=O)(=O)c1ccc(N=Nc2ccc(O)c3ncccc23)cc1,active: 50.1 µM,–
COc1ccc(-c2c(C)c3ccc(O)c(CN4CCN(C)CC4)c3oc2=O)cc1OC,inactive,–
Fc1ccc(C(c2nnnn2C2CCCC2)N(Cc2ccco2)CC2CCCO2)cc1 (stereo unspecified),inactive,–
O=C(c1ccc([N+](=O)[O-])o1)N(Cc1nnc(-c2ccccc2Cl)o1)C1CC1,"inconclusive: 3.16 µM [inhibitor, single point]",–
O=C(Cc1ccccc1C(=O)O)Nc1cccc2ccccc12,"inconclusive: 79.4 µM [inhibitor, single point]",–
CSc1cccc(NC(=O)Nc2ccccc2C(N)=O)c1,inactive,–
O=C(Nc1ccn(Cc2c(F)c(F)cc(F)c2F)n1)c1cccc(Cn2cc([N+](=O)[O-])cn2)c1,"inconclusive: 1 µM [inhibitor, full curve, poor fit]",–
Cn1cc(CN(CCO)Cc2cccs2)c(-c2cccc(Cl)c2)n1,"inconclusive: 39.8 µM [inhibitor, single point]",–
O=C(NNC(=O)c1ccccc1-c1ccccc1C(=O)O)c1ccccc1,"inconclusive: 50.1 µM [inhibitor, partial curve]",–
COc1ccc(NC(=O)C2C3C=CC4(O3)C2C(=O)N(CCN2CCCCC2C)C4C(=O)NC2CCCCC2)cc1 (stereo unspecified),"inconclusive: 79.4 µM [inhibitor, single point]",–
Cc1ccc(-c2nc(N)c3c(-c4ccc(C)cc4)nn(C(C)(C)C)c3n2)cc1,"inconclusive: 89.1 µM [inhibitor, single point]",–
COc1ccc(CSc2nc3ccncc3n2Cc2nc(-c3ccc(OC)c(OC)c3)oc2C)cc1,"inconclusive: 6.31 µM [inhibitor, partial curve]",–
COc1ccc(S(=O)(=O)c2cn(CC(=O)Nc3ccccc3)c3ccc(Cl)cc3c2=O)cc1,inactive,–

SMILES,Potency,"activity, negative = inhibition"
O=C(O)/C=C\C(=O)Nc1ccccc1C#Cc1ccccc1,–,inconclusive: -85.4% [inhibitor]
Cc1cccc2sc(N(Cc3cccnc3)C(=O)C3CCCCC3)nc12,inactive,–
CCc1nnc(NS(=O)(=O)c2ccc(NC(=O)COc3ccc(Cl)c(C)c3)cc2)s1,"inconclusive: 35.5 µM [inhibitor, partial curve, poor fit]",–
CN(CC(=O)Nc1cccc(F)c1)CC(=O)N1CCCCC1,"inconclusive: 3.16 µM [inhibitor, partial curve, poor fit]",–
CCOc1ccc(C2(C)NC(=O)N(CCN(C)C)C2=O)cc1 (stereo unspecified),–,inactive: -0.645% [at 0.501 µM]
CCOc1ccc(S(=O)(=O)N2CCC(C(=O)NCc3ccco3)CC2)cc1C,"inconclusive: 89.1 µM [inhibitor, partial curve, poor fit]",–
Cc1onc(-c2c(Cl)cccc2Cl)c1C(=O)Nc1nc(C(C)(C)C)cs1,"inconclusive: 44.7 µM [inhibitor, partial curve]",–
CSc1ccc(S(=O)(=O)Nc2ccccc2C(=O)N2CCOCC2)cc1,"inconclusive: 20 µM [inhibitor, single point]",–
CCc1ccc2c(CN3CCc4ccccc43)cc(=O)oc2c1,active: 35.5 µM,–
COc1ccc(NC(=O)CN(C)CC(=O)Nc2cccc3ccccc23)c(OC)c1,active: 17.8 µM,–
CN(C(=O)c1cccc(Nc2ccc(-c3ccc4c(c3)OCCO4)nn2)c1)C1CCCCC1,"inconclusive: 28.2 µM [inhibitor, single point]",–
Cc1nn(CCCC(=O)NCc2ccccc2)c(C)c1[N+](=O)[O-],"inconclusive: 1 µM [inhibitor, partial curve, poor fit]",–
COC(=O)c1[nH]c2cc(OC)ccc2c1NC(=O)CCN1CCN(c2ccccc2)CC1,"inconclusive: 25.1 µM [inhibitor, single point]",–
Cc1ccc(-n2c(SCC(N)=O)nnc2-c2cnccn2)cc1,inactive,–
COc1ccc(NS(=O)(=O)c2ccc(C(=O)N(C)Cc3cccs3)cc2)cc1,"inconclusive: 89.1 µM [inhibitor, partial curve, poor fit]",–
Clc1nc(Cl)nc(NCCC2=CCCCC2)n1,"inconclusive: 44.7 µM [inhibitor, partial curve]",–
O=C(Nc1ccc(Br)cc1)c1ccc(Br)c(S(=O)(=O)NCc2ccccc2)c1,inactive,–
Cn1c(SCC(=O)Nc2ccc3c(c2)OCCO3)nnc1-c1cccnc1,"inconclusive: 79.4 µM [inhibitor, single point]",–
COc1cccc(-c2cc(C(=O)NCCc3ccc(C)cc3)[nH]n2)c1,inactive,–
Cc1cc(C(=O)CC#N)c(C)n1-c1ccc(OC(F)F)cc1,"inconclusive: 50.1 µM [inhibitor, partial curve]",–
Cn1c(NC(=O)c2ccc(Br)o2)cc(=O)n(C)c1=O,"inconclusive: 10 µM [inhibitor, partial curve]",–
CCN(Cc1ccccc1)C(=O)Nc1ccc2c(c1)N(C)C(=O)c1ccccc1S2,inactive,–
COc1cc(NC(=O)c2cc(OC)c(OC)c(OC)c2)cc(-n2cnnn2)c1,"inconclusive: 89.1 µM [inhibitor, single point]",–
